What was measured:
human serum albumin = target: T1, human serum albumin (human, UniProt P02768); assay: lysate ELISA
T1 construct: also called HSA

mouse serum albumin = target: T2, mouse serum albumin (mouse, UniProt P07724 25-608); assay: lysate ELISA and/or Biacore
T2 construct: also called MSA

EGFR on cells = target: T3, EGFR on cells (UniProt P00533); assay: FACS MDA-MB-468 cells, lysate
T3 construct: whole, on cells; also called epidermal growth factor receptor

Chain of mouse serum albumin (P07724 25-608 limits assumed): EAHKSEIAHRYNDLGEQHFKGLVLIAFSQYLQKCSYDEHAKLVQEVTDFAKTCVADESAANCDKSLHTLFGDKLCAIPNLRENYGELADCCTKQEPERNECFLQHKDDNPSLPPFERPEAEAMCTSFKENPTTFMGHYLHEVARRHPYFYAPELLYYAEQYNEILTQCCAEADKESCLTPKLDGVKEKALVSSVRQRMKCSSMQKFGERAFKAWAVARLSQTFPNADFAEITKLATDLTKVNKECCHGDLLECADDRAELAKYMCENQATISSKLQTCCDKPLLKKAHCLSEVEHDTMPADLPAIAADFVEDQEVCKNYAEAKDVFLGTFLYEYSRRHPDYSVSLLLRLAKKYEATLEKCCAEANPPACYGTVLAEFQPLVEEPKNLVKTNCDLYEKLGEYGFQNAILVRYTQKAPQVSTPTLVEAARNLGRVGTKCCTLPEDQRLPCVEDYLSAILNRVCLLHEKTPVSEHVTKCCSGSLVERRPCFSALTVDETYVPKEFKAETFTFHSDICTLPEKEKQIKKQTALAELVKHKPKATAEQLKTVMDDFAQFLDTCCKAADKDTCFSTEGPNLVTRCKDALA

B1: SEQ ID NO 362 (designed binder)
chain: GVTLFVALYDYLLQWRQDLSFHKGEKFQILQDLWTGDWWEARSLTTGETGYIPSNYVAPVDSIQ
notes: myc-His tagged
B1: binds (human serum albumin); binds (mouse serum albumin).

B2: SEQ ID NO 363 (designed binder)
chain: GVTLFVALYDYTSSHGFDLSFHKGEKFQILQDLWTGDWWEVRSLTTGETGYIPSNYVAPVDSIQ
notes: myc-His tagged
B2: binds (human serum albumin); binds (mouse serum albumin).

B3: SEQ ID NO 364 (designed binder)
chain: GVTLFVALYDYEAHLGYDLSFHKGEKFQILQNLWTGDWWEARSLTTGETGYIPSNYVAPVDSIQ
notes: myc-His tagged
B3: binds (human serum albumin); binds (mouse serum albumin).

B4: SEQ ID NO 365 (designed binder)
chain: GVTLFVALYDYTAVHGYDLSFHKGEKFQILQNLWTGDWWEARSLTTGETGYIPSNYVAPVDSIQ
notes: myc-His tagged
B4: binds (human serum albumin); binds (mouse serum albumin).

B5: SEQ ID NO 366 (designed binder)
chain: GVTLFVALYDYLTKQLPDRSFHKGEKFQILQNLWTGDWWEARSLTTGETGYIPSNYVAPVDSIQ
notes: myc-His tagged
B5: binds (human serum albumin); binds (mouse serum albumin).

B6: SEQ ID NO 367 (designed binder)
chain: GVTLFVALYDYMSQMGYDLSFHKGEKFQILQNLWTGDWWEARSLTTGETGYIPSNYVAPVDSIQ
notes: myc-His tagged
B6: binds (human serum albumin); binds (mouse serum albumin).

B7: SEQ ID NO 368 (designed binder)
chain: GVTLFVALYDYQASHGYDLSFHKGEKFQILQNLWTGDWWEARSLTTGETGYIPSNYVAPVDSIQ
notes: myc-His tagged
B7: binds (human serum albumin); binds (mouse serum albumin).

B8: SEQ ID NO 369 (designed binder)
chain: GVTLFVALYDYTARTGYDLSFHKGEKFQILDAVRFGDWWEARSLTTGETGYIPSNYVAPVDSIQ
notes: myc-His tagged
B8: binds (human serum albumin).

B9: SEQ ID NO 370 (designed binder)
chain: GVTLFVALYDYQSREKFDLSFHKGEKFQILDQLRFGDWWEARSLTTGETGYIPSNYVAPVDSIQ
notes: myc-His tagged
B9: binds (human serum albumin).

B10: SEQ ID NO 371 (designed binder)
chain: GVTLFVALYDYQSRHGFDLSFHKGEKFQILDNLRFGDWWEARSLTTGETGYIPSNYVAPVDSIQ
notes: myc-His tagged
B10: binds (human serum albumin).

B11: SEQ ID NO 372 (designed binder)
chain: GVTLFVALYDYHAHLGYDLSFHKGEKFQILDDLRFGDWWEARSLTTGETGYIPSNYVAPVDSIQ
notes: myc-His tagged
B11: binds (human serum albumin).

B12: SEQ ID NO 373 (designed binder)
chain: GVTLFVALYDYQSRHGFDLSFHKGEKFQILDWLRFGDWWEARSLTTGETGYIPSNYVAPVDSIQ
notes: myc-His tagged
B12: binds (human serum albumin).

B13: SEQ ID NO 374 (designed binder)
chain: GVTLFVALYDYQSRHGFDLSFHKGEKFQILDAIRFGDRWEARSLTTGETGYIPSNYVAPVDSIQ
notes: myc-His tagged
B13: binds (human serum albumin).

B14: SEQ ID NO 376 (designed binder)
chain: GVTLFVALYDYHAHLGYDLSFHKGEKFQILDSLRFGDWWEARSLTTGETGYIPSNYVAPVDSIQ
notes: myc-His tagged
B14: binds (human serum albumin).

B15: SEQ ID NO 375 (designed binder)
chain: GVTLFVALYDYQSRHGFDLSFHKGEKFQILDAMLRFGDWWEARSLTTGETGYIPSNYVAPVDSI
notes: myc-His tagged
B15: binds (human serum albumin).

B16: SEQ ID NO 417 (designed binder)
chain: GVTLFVALYDYEARGLNRMFDLSFHKGEKFQILTRETGDWWEARSLTTGETGYIPSNYVAPVDSIQ
notes: myc-His tagged
B16: binds (EGFR on cells).

B17: ER7L2D6 (designed binder)
chain: GVTLFVALYDYEARGLNRMFDLSFHKGEKFQILSFETGDWWEARSLTTGETGYIPSNYVAPVDSIQ
notes: myc-His tagged
B17: binds (EGFR on cells).

B18: ER9L3D7 (designed binder)
chain: GVTLFVALYDYEARGLNRMFDLSFHKGEKFQILSTENGDWWEARSLTTGETGYIPSNYVAPVDSIQ
notes: myc-His tagged
B18: binds (EGFR on cells).

B19: SEQ ID NO 411 (designed binder)
chain: GVTLFVAVYDYEARGLNRMFDLSFHKGEKFQILNRESEDWWEARSLTTGETGYIPSNYVAPVDSIQ
notes: myc-His tagged
B19: binds (EGFR on cells).

B20: SEQ ID NO 412 (designed binder)
chain: GVTLFVALYDYEARGLNRMFDLSFHKGEKFQILQFETGDWWEARSLTTGETGYIPSNYVAPVDSIQ
notes: myc-His tagged
B20: binds (EGFR on cells).

B21: SEQ ID NO 413 (designed binder)
chain: GVTLFVALYDYEARGLNRMFDLSFHKGEKFQILAFETGDWWEARSLTTGETGYIPSNYVAPVDSIQ
notes: myc-His tagged
B21: binds (EGFR on cells).

Source: patent publication US20170307628A1 (EIDGENOESSISCHE TECHNISCHE HOCHSCHULE ZURICH, published 2017)
